Measured values from PubChem BioAssay AID504339 (National Center for Advancing Translational Sciences (NCATS), 2011).
Among all 390,000 compounds or so, about 17,000 (4.4%) were called active. The shares of active, inactive and inconclusive entries below differ from those in the screen. Calls follow the shape of the dose curve; as a rule, active = well fitted inhibition curve with a large enough effect; inconclusive = small, poorly fitted or top-dose-only effect; inactive = no such curve, though single readings can be large or run the other way. Potencies beside an inconclusive call are fits to weak or partial responses and may not hold up.

What follows are compounds tested against Lysine-specific demethylase 4A (Homo sapiens) (UniProt O75164) (assay: qHTS Assay for Inhibitors of JMJD2A-Tudor Domain). Settings: AlphaScreen JMJD2A-Tudor / H3K4me3 peptide binding; activity change, negative = inhibition: at 114 µM (top of the series).
UniProt O75164, sequence (O75164 whole entry, looked up, the tested form may be a part): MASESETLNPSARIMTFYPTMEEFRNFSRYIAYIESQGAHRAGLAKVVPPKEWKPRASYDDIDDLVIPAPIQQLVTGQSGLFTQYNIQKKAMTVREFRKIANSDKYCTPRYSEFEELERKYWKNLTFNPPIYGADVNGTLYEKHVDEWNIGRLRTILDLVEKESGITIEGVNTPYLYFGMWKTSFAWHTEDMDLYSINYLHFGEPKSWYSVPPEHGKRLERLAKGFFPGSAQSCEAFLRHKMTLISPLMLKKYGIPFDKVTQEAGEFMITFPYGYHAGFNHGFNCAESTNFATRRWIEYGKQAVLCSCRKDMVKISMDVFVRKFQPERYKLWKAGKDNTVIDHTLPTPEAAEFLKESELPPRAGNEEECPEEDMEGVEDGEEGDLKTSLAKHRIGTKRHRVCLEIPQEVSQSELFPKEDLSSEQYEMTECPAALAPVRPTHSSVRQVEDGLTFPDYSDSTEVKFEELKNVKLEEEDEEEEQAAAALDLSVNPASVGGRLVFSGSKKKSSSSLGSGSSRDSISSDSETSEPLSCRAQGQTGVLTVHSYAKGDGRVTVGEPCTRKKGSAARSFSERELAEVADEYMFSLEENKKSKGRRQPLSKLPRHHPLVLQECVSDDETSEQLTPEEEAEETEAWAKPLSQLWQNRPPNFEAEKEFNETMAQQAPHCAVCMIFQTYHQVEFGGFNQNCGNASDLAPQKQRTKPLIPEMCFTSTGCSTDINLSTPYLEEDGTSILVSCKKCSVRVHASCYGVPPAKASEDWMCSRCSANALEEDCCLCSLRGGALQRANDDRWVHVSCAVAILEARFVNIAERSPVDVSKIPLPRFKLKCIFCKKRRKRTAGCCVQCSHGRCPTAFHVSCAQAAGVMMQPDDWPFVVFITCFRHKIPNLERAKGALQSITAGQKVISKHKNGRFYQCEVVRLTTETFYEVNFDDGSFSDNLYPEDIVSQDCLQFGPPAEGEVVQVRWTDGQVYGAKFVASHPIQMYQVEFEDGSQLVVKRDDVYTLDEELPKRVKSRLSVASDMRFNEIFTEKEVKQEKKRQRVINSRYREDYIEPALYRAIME
% is scaled to controls: 0 for no effect and ±100 for the full control effect; potency is read from the fitted curve at half-maximal effect; tags tell the direction and shape of the fitted curve.
Also: nearly all actives have a fitted effect of over 50% in size.

Row | SMILES | activity change, negative = inhibition | Potency
1 | COc1cc(OC)cc(C(=O)N2CCC3(CC2)NCCc2[nH]cnc23)c1 | inactive: -25.2% | –
2 | COc1ccc(N2CCN(C(C)C(=O)Nc3nnc(C)s3)CC2)cc1 (stereo unspecified) | – | inconclusive: 39.8 µM [inhibitor, single point]
3 | Cn1nccc1C(=O)N1CCc2c([nH]c3ccccc23)C1c1ccc(F)cc1 (stereo unspecified) | – | inconclusive: 50.1 µM [inhibitor, partial curve]
4 | COc1cccc(C(=O)NCC(=O)OCC(=O)c2ccccc2)c1 | inactive: -19% | –
5 | COc1cc(CNc2ccc3c(c2)CCC3)cc(OC)c1O | – | active: 3.98 µM
6 | Cc1oc(-c2ccc3c(c2)OCCO3)cc1C(=O)NCC(=O)O | – | inconclusive: 89.1 µM [inhibitor, partial curve]
7 | CCOc1ccc(CCN2C(=S)N([C@@H](CC(C)C)CN3CCCC3CN3C(=S)NC[C@@H]3CC(C)C)C[C@@H]2Cc2ccccc2)cc1 (stereo partly specified) | – | inconclusive: 5.01 µM [inhibitor, full curve, poor fit]
8 | Cc1ccc(C)c(OCCC(=O)OC(C)C(=O)Nc2c(C)n(C)n(-c3ccccc3)c2=O)c1 (stereo unspecified) | inactive: -7.43% | –
9 | COc1ccccc1Nc1c2c(nc3ccc(NC(=O)/C=C/c4cccc(OC)c4OC)cc13)CCCC2 | – | inconclusive: 14.1 µM [inhibitor, full curve]
10 | CCc1ccccc1OCCCCN1CCCC1 | – | active: 7.94 µM
11 | COc1cc(OC)c(NC(c2nnc(-c3ccccc3)o2)c2ccc(F)cc2Cl)cc1Cl (stereo unspecified) | – | inconclusive: 20 µM [inhibitor, full curve]
12 | COc1cc2c(cc1OC)C1=C(C#N)CN(C3CCCCC3)CN1CC2 | – | inconclusive: 56.2 µM [inhibitor, partial curve, poor fit]
13 | CCc1ccc2c(c1)c1nnc(NN)nc1n2CC | – | inconclusive: 22.4 µM [inhibitor, partial curve]
14 | CCc1cccc(CC)c1-n1c(-c2cccnc2)n[nH]c1=S | – | inconclusive: 3.55 µM [inhibitor, full curve, poor fit]
15 | COc1ccccc1-n1cc(-c2ccc(C)cc2)nc1S(=O)(=O)CC(=O)Nc1ccccc1C(F)(F)F | – | inconclusive: 39.8 µM [inhibitor, full curve, poor fit]
16 | Cc1nn(C)c(C)c1CN(C)C(=O)CCCC(=O)O | – | active: 50.1 µM
17 | C=CCN=c1scc(-c2ccco2)n1/N=C/c1ccc(O)c(O)c1O | – | active: 50.1 µM
18 | CCOC(=O)C1CCN(C(=O)Cn2nc(CC)n3cccc3c2=O)CC1 | – | inconclusive: 20 µM [inhibitor, partial curve, poor fit]
19 | O=C(Nc1ccc(Nc2ccccc2)cc1)c1ccccc1F | – | inconclusive: 79.4 µM [inhibitor, partial curve]
20 | CCCCNc1nc(=S)[nH]c2cc(OC)c(OC)cc12 | – | inconclusive: 89.1 µM [inhibitor, single point]
21 | CCOC(=O)c1c(NC(=O)CSc2c[nH]c3ccccc23)sc2c1CCCC2 | – | inconclusive: 50.1 µM [inhibitor, partial curve]
22 | Cc1ccc(CN2CCCn3nc(C(=O)NCCC(C)C)cc3C2=O)cc1 | inactive: -29.8% | –
23 | CC1CCCC(=C\c2ccccc2)/C1=N/O (stereo unspecified) | – | inconclusive: 31.6 µM [inhibitor, single point]
24 | O=C1N(Cc2cccc(Cl)c2)C[C@@H]2C[C@@H](c3cccc4cccnc34)N3CCC[C@@]123 | inactive: -21.5% | –

Row | SMILES | activity change, negative = inhibition | Potency
25 | O=c1oc2cc(O)ccc2c2c1CCCC2 | inactive: 8.73% | –
26 | Cc1cc(C(=O)N/N=C/c2ccc(O)c([N+](=O)[O-])c2)c(C)n1-c1ccc(F)cc1 | – | inconclusive: 44.7 µM [inhibitor, partial curve]
27 | CCOC(=O)CCC(=O)Nc1ncnc2c1C(c1ccccc1)c1c(ccc3ccccc13)O2 (stereo unspecified) | – | inconclusive: 10 µM [inhibitor, partial curve, poor fit]
28 | CCOC(=O)c1ccccc1NC(=O)COC(=O)c1ccccc1C(=O)N(C)c1ccccc1 | inactive: -23% | –
29 | O=C(/C=C\Nc1ccc2c(c1)OCO2)c1ccc(Cl)s1 | – | inconclusive: 31.6 µM [inhibitor, partial curve]
30 | O=C(NCc1ccc2c(c1)OCO2)c1ccc(N2CCCCCC2)c([N+](=O)[O-])c1 | – | inconclusive: 17.8 µM [inhibitor, partial curve]
31 | Cc1nc(SCC(=O)NCc2ccc3c(c2)OCO3)nc(C)c1C | inactive: -11.6% | –
32 | CCc1cc2cc(C)cc(C)c2[nH]c1=S | – | active: 8.91 µM
33 | O=C(C1=C(O)C(=O)N(c2ncccn2)C1c1ccc(Cl)c(Cl)c1)c1ccco1 (stereo unspecified) | – | active: 7.08 µM
34 | CCC(CC)=NNc1ccc(S(N)(=O)=O)cc1[N+](=O)[O-] | – | inconclusive: 28.2 µM [inhibitor, full curve, poor fit]
35 | CC1(C)Cc2c(c(N3CCCC3)nc3sc4c(N5CCN(CCO)CC5)ncnc4c23)CO1 | – | inconclusive: 56.2 µM [inhibitor, partial curve]
36 | c1ccc(COc2nsnc2N2CCOCC2)cc1 | – | inconclusive: 31.6 µM [inhibitor, partial curve]
37 | CCOc1cc(C(N)=O)cc(Br)c1OC | – | inconclusive: 39.8 µM [inhibitor, single point]
38 | CCOc1cccc(C2C(C(=O)c3ccco3)=C(O)C(=O)N2Cc2ccncc2)c1 (stereo unspecified) | – | inconclusive: 89.1 µM [inhibitor, single point]
39 | Clc1ccc(OCc2nn3c(-c4ccco4)nnc3s2)c(Cl)c1 | – | inconclusive: 56.2 µM [inhibitor, partial curve]
40 | Cc1cccc(OCC(=O)Nc2nc(-c3ccncc3)cs2)c1 | inactive: -7.19% | –
41 | c1ccc(N/N=C(\Cc2nc3ccccc3[nH]2)c2ccccc2)cc1 | – | inconclusive: 10 µM [inhibitor, full curve]
42 | COc1cc([N+](=O)[O-])cc(/C=N/NC(=O)C(C)Nc2cccc3ccccc23)c1O (stereo unspecified) | – | inconclusive: 70.8 µM [inhibitor, single point]
43 | N#CC1=C(N)SC2(CCCCC2)SC1c1ccccc1 (stereo unspecified) | – | inconclusive: 63.1 µM [inhibitor, partial curve, poor fit]
44 | CCN1C(=O)[C@H]2[C@H]3CN=C(SCc4ccc(Cl)cc4)N3[C@@](Cc3ccccc3)(C(=O)OC)[C@H]2C1=O | – | inconclusive: 56.2 µM [inhibitor, partial curve]
45 | Cc1ccc(C(=O)NNC(=O)CSc2nnc3c(n2)[nH]c2ccc(F)cc23)cc1 | – | active: 20 µM
46 | O=C(CN1CCN(c2ccccn2)CC1)Nc1ccc([N+](=O)[O-])cc1C(=O)Nc1ccccc1F | – | inconclusive: 25.1 µM [inhibitor, full curve, poor fit]
47 | Cc1ccc(-n2ncc(-c3nnc(SCC(=O)NC4CCCC4)o3)c2N)cc1C | inactive: -7.53% | –
48 | Cc1ccc(S(=O)(=O)c2nnn3c2nc(NCc2ccc(F)cc2)c2sccc23)cc1 | – | inconclusive: 89.1 µM [inhibitor, single point]

Row | SMILES | activity change, negative = inhibition | Potency
49 | Cc1ccc(-c2c3c([nH]c(=S)c2C#N)CCCC3)o1 | – | active: 39.8 µM
50 | O=C(CSc1ccc2ccccc2n1)c1ccc2c(c1)OCO2 | inactive: -4.5% | –
51 | CSCCC(NC=C1C(=O)OC(C)(C)OC1=O)C(=O)O (stereo unspecified) | – | active: 79.4 µM
52 | O=C(COc1ccc(Br)cc1)OCc1nnc(-c2ccccc2)o1 | inactive: 3.82% [at 57.1 µM] | –
53 | O=C(Cc1ccc(Cl)c(Cl)c1)Nc1ccccc1N1CCCC1 | – | inconclusive: 44.7 µM [inhibitor, partial curve]
54 | COc1cc(NC(=O)Cn2c(=O)n(Cc3ccccc3OC)c(=O)c3cccnc32)cc(OC)c1 | inactive: -6.18% | –
55 | C1CSC2(N1)C1CC3CC2CC(C1)C31NCCS1 (stereo unspecified) | inactive: -17.4% | –
56 | Cc1cccc(N2CCN(S(=O)(=O)c3ccc4c(c3)NC(=O)CO4)CC2)c1C | – | inconclusive: 15.8 µM [inhibitor, full curve]
57 | O=C(c1cccc(Cl)c1)N1CCN(C2CCCCCC2)CC1 | – | active: 7.94 µM
58 | O=C(CC1N=C2c3ccccc3N=C(SCC(=O)Nc3cccc(C(F)(F)F)c3)N2C1=O)NCc1cccs1 (stereo unspecified) | inactive: -16.1% | –
59 | COc1ccc(S(=O)(=O)N2CCOCC2)cc1NC(=O)c1cccc(-n2cccc2)c1 | – | inconclusive: 0.891 µM [inhibitor, full curve]
60 | Cc1ccc(C(=O)NNC(=O)Cc2nc3nc(C)cc(C)n3n2)cc1 | inactive: 8.17% | –
61 | CCCCCC(=O)Nc1nc(C)c(-c2csc(Nc3cc(Cl)ccc3OC)n2)s1 | – | inconclusive: 39.8 µM [inhibitor, partial curve, poor fit]
62 | Cc1cc2c(cc1C)N[C@]1(C[C@H]3CCCC(=O)N4CC[C@@H](C1)[C@@H]34)C(=NC(C)(C)CC(C)(C)C)N2 | – | active: 22.4 µM
63 | COc1ccc(C(=O)Oc2ccc(/C=N/NC(=O)Cc3ccc([N+](=O)[O-])cc3)cc2)cc1 | – | inconclusive: 11.2 µM [inhibitor, full curve, poor fit]
64 | O=C(NCC(O)c1ccc([N+](=O)[O-])cc1)C1=COCCO1 (stereo unspecified) | inactive: -8.22% | –
65 | COc1ccc(NCc2ccsc2)cc1 | – | active: 56.2 µM
66 | CC1(C)Cc2ccccc2/C(=C/C(=O)c2ccccc2)N1 | – | inconclusive: 35.5 µM [inhibitor, partial curve]
67 | Oc1c(I)cc(I)c2cccnc12 | – | active: 56.2 µM
68 | CCS(=O)(=O)Nc1cccc(-c2cc(-c3ccccc3)c3cc(C)ccc3n2)c1 | – | inconclusive: 50.1 µM [inhibitor, partial curve]
69 | CCc1nnc(NC(=O)CN2CCN(c3nc(-c4ccccc4)cs3)CC2)s1 | – | inconclusive: 56.2 µM [inhibitor, partial curve]
70 | COc1cccc(C(=O)N2CCN(Cc3ccc4c(c3)OCO4)CC2)c1OC | – | active: 7.94 µM
71 | Cn1nc([N+](=O)[O-])c(C(C#N)c2nc3ccccc3n2C)c(Cl)c1=O (stereo unspecified) | – | inconclusive: 35.5 µM [inhibitor, partial curve]
